Experimental data reported in PubChem BioAssay AID504332 (National Center for Advancing Translational Sciences (NCATS), 2011).
The whole screen tested about 350,000 compounds, of which about 31,000 (8.9%) were called active. This list was built around the results that the source calls inconclusive (neither active nor inactive); the mix of calls is not that of the screen. Calls come from the whole dose curve; as a rule, active = well fitted inhibition curve with a large enough effect; inconclusive = small, poorly fitted or top-dose-only effect; inactive = no such curve, though single readings can be large or run the other way. Potencies of inconclusive entries are doubtful fits and often do not repeat.
% is set by controls: 0 for no effect and ±100 for the full control effect; potency is the fitted concentration of half-maximal effect; tags give direction and shape of the fitted curve.
Note: nearly all actives have a fitted effect of over 75% in size.

Each compound was assayed against Histone-lysine N-methyltransferase EHMT2 (Homo sapiens) (UniProt Q96KQ7) (assay: qHTS Assay for Inhibitors of Histone Lysine Methyltransferase G9a). Conditions: G9a H3K9 monomethylation, AlphaScreen, 2 h; activity, negative = inhibition: at 59 µM (top of the series) unless noted.
Sequence of UniProt Q96KQ7 (Q96KQ7 whole entry, looked up): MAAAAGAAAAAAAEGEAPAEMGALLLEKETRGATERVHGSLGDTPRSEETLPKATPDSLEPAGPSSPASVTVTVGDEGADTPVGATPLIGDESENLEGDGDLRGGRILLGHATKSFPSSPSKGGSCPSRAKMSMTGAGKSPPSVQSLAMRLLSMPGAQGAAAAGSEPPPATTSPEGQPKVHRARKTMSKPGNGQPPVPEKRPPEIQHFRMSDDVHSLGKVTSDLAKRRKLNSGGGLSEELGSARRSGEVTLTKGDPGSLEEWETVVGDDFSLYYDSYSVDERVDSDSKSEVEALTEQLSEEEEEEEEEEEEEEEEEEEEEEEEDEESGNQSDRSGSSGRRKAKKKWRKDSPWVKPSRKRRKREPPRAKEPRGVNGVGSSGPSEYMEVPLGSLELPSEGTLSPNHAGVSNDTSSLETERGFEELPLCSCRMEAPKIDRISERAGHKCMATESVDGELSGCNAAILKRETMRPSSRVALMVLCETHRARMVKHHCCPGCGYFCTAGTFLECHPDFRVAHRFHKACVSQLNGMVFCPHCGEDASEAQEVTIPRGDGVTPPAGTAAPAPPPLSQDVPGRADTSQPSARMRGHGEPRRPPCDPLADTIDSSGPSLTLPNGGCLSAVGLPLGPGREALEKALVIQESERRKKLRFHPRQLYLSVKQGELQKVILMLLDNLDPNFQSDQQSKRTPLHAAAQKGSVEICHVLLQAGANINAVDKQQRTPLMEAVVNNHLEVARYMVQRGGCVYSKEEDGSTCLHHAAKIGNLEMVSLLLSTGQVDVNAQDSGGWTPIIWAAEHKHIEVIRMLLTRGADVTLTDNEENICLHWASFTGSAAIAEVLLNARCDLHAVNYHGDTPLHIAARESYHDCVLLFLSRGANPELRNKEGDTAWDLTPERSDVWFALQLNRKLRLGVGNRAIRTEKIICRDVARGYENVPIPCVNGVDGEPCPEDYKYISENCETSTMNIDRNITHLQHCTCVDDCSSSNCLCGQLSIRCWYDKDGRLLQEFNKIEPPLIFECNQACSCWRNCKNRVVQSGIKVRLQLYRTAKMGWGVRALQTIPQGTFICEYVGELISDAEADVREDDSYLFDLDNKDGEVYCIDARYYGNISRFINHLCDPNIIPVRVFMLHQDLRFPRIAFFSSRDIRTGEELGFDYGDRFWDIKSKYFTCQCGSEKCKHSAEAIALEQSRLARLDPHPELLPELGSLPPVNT
Procedure, shortened: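 AlphaScreen read-out: biotin-H3K9 peptide (500 nM) methylation by 20 nM enzyme with 20 uM SAM, 2 h at room temperature after 15 min compound preincubation; anti-monomethyl H3K9 antibody plus donor/acceptor beads, 10 min dark.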
With CCC1(c2ccc(F)cc2)NC(=O)N(CC(=O)Nc2ccc(C(N)=O)cc2)C1=O (stereo not drawn) the Potency was “inactive”. COc1ccccc1NS(=O)(=O)c1cccc(C(=O)N/N=C/c2ccc(C)o2)c1 was tested, and the Potency was inconclusive: 50.1 µM [inhibitor, single point]. With NNC(=O)c1nc[nH]c1C(=O)Nc1ccccc1[N+](=O)[O-] the Potency was inconclusive: 50.1 µM [inhibitor, partial curve, poor fit]. For CC(C)(C)c1ccc(O)c(/C=N\O)c1, the Potency was “inactive”. For CCOC(=O)N1CCC(N2CCN(S(=O)(=O)c3ccc(Cl)cc3)CC2)CC1, the Potency was inconclusive: 0.316 µM [inhibitor, full curve, poor fit]. In the case of CCOC(=O)c1cnc2c(ccc3ccccc32)c1Nc1ccc(OC)cc1OC, the Potency is reported as inconclusive: 1.26 µM [inhibitor, full curve, poor fit]. In the case of COCCCNC(=S)N/N=C/c1ccc(N(C)C)cc1, the Potency is reported as inconclusive: 70.8 µM [inhibitor, partial curve, poor fit]. COc1ccc(C(CNCC(=O)Nc2ccccc2F)N(C)C)cc1 (stereo not drawn) was tested, and the Potency was inconclusive: 79.4 µM [inhibitor, single point]. In the case of Cc1cccc(Nc2nc(NCc3ccco3)c3ccccc3n2)c1, the Potency is reported as active: 17.8 µM. With Oc1ccc2ccccc2c1C=NC1CCCCC1 the Potency was active: 8.91 µM. O=[N+]([O-])c1ccc(CN2CCN(c3ncccn3)CC2)cc1 was tested, and the Potency was active: 31.6 µM. In the case of NC(=O)c1ccccc1N/C=C1\CCCCC1=O, the Potency is reported as inconclusive: 56.2 µM [inhibitor, partial curve, poor fit]. CCCCCCCCc1nc(SC(C)C(=O)O)n[nH]1 (stereo not drawn) was tested, and the Potency was inconclusive: 28.2 µM [inhibitor, partial curve]. For O=C(/C=C/c1ccc(F)cc1)NC(=S)NNC(=O)c1cnccn1, the Potency was active: 50.1 µM. COc1cccc(C(=O)NNC(=O)C2CCCO2)c1 (stereo not drawn) was tested, and the Potency was inconclusive: 31.6 µM [inhibitor, single point]. In the case of COc1cc(C(=S)N2CCCC2)ccc1OS(=O)(=O)c1ccc(NC(C)=O)cc1, the Potency is reported as inconclusive: 17.8 µM [inhibitor, partial curve, poor fit]. With O=C(N/N=C/C=C/c1ccco1)c1cccc([N+](=O)[O-])c1 the Potency was inconclusive: 79.4 µM [inhibitor, single point]. COc1ccc(CCC(=O)NNC(=S)Nc2cccc(C(C)=O)c2)cc1 was tested, and the Potency was active: 39.8 µM. For COC(=O)Cc1ccc(NC(=O)c2ccc(C)c(C)c2)cc1, the Potency was inconclusive: 70.8 µM [inhibitor, single point]. Cn1cccc1C(=O)NC(=O)COC(=O)CNC(=O)c1ccc(Cl)cc1Cl was tested, and the Potency was inconclusive: 79.4 µM [inhibitor, single point]. With COc1ccc2nc(NNC(=O)C3COc4ccccc4O3)sc2c1 (stereo not drawn) the Potency was inconclusive: 50.1 µM [inhibitor, partial curve, poor fit]. COC(=O)c1c(NC(=O)COc2ccc(Cl)cc2C)sc2c1CCCCC2 was tested, and the Potency was active: 7.94 µM. In the case of CSc1cccc(NC(=O)CC(c2ccc(F)cc2)N2Cc3ccccc3C2=O)c1 (stereo not drawn), the Potency is reported as “inactive”. CCN(CC)CCNC(=O)C1c2ccccc2Oc2ccccc21 was tested, and the Potency was inconclusive: 79.4 µM [inhibitor, single point]. O=C(C1CCN(S(=O)(=O)c2c(Cl)cccc2Cl)CC1)N1CCCCCCC1 was tested, and the Potency was inconclusive: 39.8 µM [inhibitor, partial curve, poor fit]. In the case of Cc1cc(NC(=O)CSc2nc3ccccc3s2)no1, the Potency is reported as inconclusive: 39.8 µM [inhibitor, partial curve, poor fit]. With CC(/C=C/c1ccccc1)=N/NC(=O)c1cnccn1 the Potency was “inactive”. CN(C)C(=O)c1ccc2c(c1)C1C3CCC(C3)C1C(c1ccccc1)N2 (stereo not drawn) was tested, and the Potency was inconclusive: 89.1 µM [inhibitor, partial curve, poor fit]. With COc1ccc(Br)cc1CN1CCN(C(=O)c2ccco2)CC1 the Potency was active: 10 µM. Cc1cc(OCC(=O)Nc2cc(S(=O)(=O)N3CCOCC3)ccc2N2CCCC2)ccc1C(C)C was tested, and the Potency was inconclusive: 35.5 µM [inhibitor, partial curve]. With CC(=O)NCCNC(=O)c1ccc2c(=O)n(CCc3ccccc3)c(=O)[nH]c2c1 the Potency was “inactive”. In the case of CCc1ccc(NC(=O)C2CCN(C(=O)[C@@H]3Cc4ccccc4CN3)CC2)cc1, the Potency is reported as inconclusive: 89.1 µM [inhibitor, single point]. For CNC(=O)COC(=O)/C=C/c1ccco1, the Potency was inconclusive: 39.8 µM [inhibitor, partial curve]. With COCCn1c(Cc2ccccc2)nnc1SCc1ccc([N+](=O)[O-])cc1 the Potency was inconclusive: 11.2 µM [inhibitor, partial curve, poor fit]. With COc1ccc(CCNC(=O)CN(c2ccc(OC)c(OC)c2)S(=O)(=O)c2ccc(C)cc2)cc1 the Potency was inconclusive: 89.1 µM [inhibitor, single point]. CCCN(CCC)CCNC(=O)CCC(=O)Nc1ccc2nc(N3CCN(C)CC3)cc(C)c2c1 was tested, and the Potency was inconclusive: 39.8 µM [inhibitor, single point]. In the case of Cc1nc2nc(C)c(CCC(=O)NCc3cccc(Cl)c3)c(C)n2n1, the Potency is reported as “inactive”. In the case of C#CCN(Cc1ccccc1)S(=O)(=O)C=C, the activity, negative = inhibition is reported as inactive: -9.98% [at 2.33 µM]. With Cc1nc2oc(C(=O)c3ccccc3)c(N)c2c2c1COC(C)(C)C2 the Potency was inconclusive: 31.6 µM [inhibitor, single point]. Cc1[nH]n(C(N)=S)c(=O)c1C(c1ccccc1)C(C#N)C#N (stereo not drawn) was tested, and the activity, negative = inhibition was inconclusive: -85.1% [inhibitor]. Cc1ccc(NC2CCCN(C(=O)c3ccoc3C)C2)cc1C (stereo not drawn) was tested, and the Potency was inconclusive: 79.4 µM [inhibitor, single point]. In the case of COc1cc(-c2cc(-c3ccc(F)cc3)nc(N)c2C#N)ccc1O, the Potency is reported as “inactive”. CSc1ccccc1-n1nnnc1SCC(=O)Nc1ccccc1C was tested, and the activity, negative = inhibition was inactive: -7.08% [at 12.7 µM]. For Fc1ccc(Cc2cn3cc(-c4ccc(F)cc4)nc3s2)cc1, the Potency was “inactive”. For O=C(NC(=S)Nc1ccc(O)cc1)c1ccccc1Cl, the Potency was inconclusive: 63.1 µM [inhibitor, partial curve, poor fit]. O=C(CSc1nnc(-c2ccc(Cl)s2)o1)N1CCc2ccccc21 was tested, and the Potency was inconclusive: 79.4 µM [inhibitor, partial curve, poor fit]. For COC(=O)c1c(-c2ccc(C)cc2)csc1NC(=S)NC(=O)c1cc(OC)cc(OC)c1, the Potency was active: 25.1 µM. In the case of CCN(CC)CCNC(=O)c1ccc(Cl)c(S(=O)(=O)Nc2ccc(Cl)cc2)c1, the Potency is reported as inconclusive: 100 µM [inhibitor, single point]. For CN(C)c1ccc(S(=O)(=O)N2CCCCC2)cc1NC(=O)CCNC(=O)c1ccc(Cl)cc1, the Potency was inconclusive: 7.94 µM [inhibitor, full curve, poor fit]. With COC(=O)c1sc2ccccc2c1S(=O)(=O)N1CCN(c2ccc(C(C)=O)cc2)CC1 the Potency was inconclusive: 25.1 µM [inhibitor, single point]. With COc1cc(NC(=O)c2cccnc2)ccc1-c1cc2ccccc2oc1=O the Potency was inconclusive: 44.7 µM [inhibitor, partial curve, poor fit]. O=C(Nc1ccc(F)cc1F)c1cc(-c2ccc3c(c2)OCO3)on1 was tested, and the Potency was “inactive”. For CC(CCc1ccccc1)NC(=O)c1ccc(C(=O)NC(C)CCc2ccccc2)cc1 (stereo not drawn), the Potency was inconclusive: 89.1 µM [inhibitor, single point]. With CCCCCOc1ccc(NC(=O)CSc2cccc3cccnc23)cc1 the Potency was inconclusive: 5.62 µM [inhibitor, partial curve, poor fit]. For CC(C)c1nc(CNC(=O)CC2C(=O)NCCN2Cc2ccoc2)cs1 (stereo not drawn), the Potency was “inactive”. With O=C(NCC(c1cccs1)N1CCOCC1)c1ccc(Cl)s1 (stereo not drawn) the Potency was inconclusive: 89.1 µM [inhibitor, single point]. For CCC(C(=O)NCCc1ccc(SC)cc1)n1nc(C)c2c(C)n(-c3ccc(C)cc3)nc2c1=O (stereo not drawn), the Potency was inconclusive: 5.62 µM [inhibitor, partial curve, poor fit]. Cc1ccc(-c2nnc(Nc3ccc(O)cc3)c3ccccc23)cc1S(=O)(=O)NCCO was tested, and the Potency was inconclusive: 79.4 µM [inhibitor, partial curve, poor fit]. C/C(=N\Nc1ccc(Cl)cc1)c1ccncc1 was tested, and the Potency was inconclusive: 1.41 µM [inhibitor, full curve, poor fit]. With S=c1[nH]nc(-c2ccccn2)n1/N=C/c1ccc(Cl)cc1 the Potency was active: 2.24 µM. For O=S(=O)(Nc1cccc(-c2ccc(N3CCCCC3)nn2)c1)c1ccc(F)cc1F, the Potency was inconclusive: 31.6 µM [inhibitor, single point]. For CC(C)(C)NC(=O)C(c1ccncc1)N(C(=O)Cn1nnc(-c2ccc(F)cc2)n1)c1ccccc1 (stereo not drawn), the Potency was active: 22.4 µM. CC(C(=O)O)N1CCCCC1 (stereo not drawn) was tested, and the Potency was inconclusive: 70.8 µM [inhibitor, partial curve]. For CC(C)CNc1cc(NC2CCCCC2)c2c3c(onc13)-c1ccccc1C2=O, the Potency was active: 10 µM. In the case of COc1cc2c(cc1OC)CN(Cc1ccc(C)s1)CC2, the Potency is reported as active: 8.91 µM. In the case of COc1ccccc1C1C(C(C)=O)=C(C)N=c2s/c(=C\c3cc(OC)c(OC)c(OC)c3)c(=O)n21 (stereo not drawn), the Potency is reported as inconclusive: 39.8 µM [inhibitor, single point]. CC1(C(=O)O)Sc2[nH]c(=O)sc2C2c3ccccc3OC(=O)C21 (stereo not drawn) was tested, and the Potency was inconclusive: 17.8 µM [inhibitor, partial curve, poor fit]. CS(=O)(=O)c1ccc(Cl)c(NC(=O)Cc2ccccc2F)c1 was tested, and the Potency was “inactive”.
